Laboratory results reported in the supplement of paper PMC12217912.
Some of the results follow. The full chains were built here from the parent and the listed change. Inactive controls read about 0.05.

B1: TEV protease; numbered along this chain (parent)
chain: MGESLFKGPRDYNPISSSICHLTNESDGHTTSLYGIGFGPFIITNKHLFRRNNGTLVVQSLHGVFKVKDTTTLQQHLVDGRDMIIIRMPKDFPPFPQKLKFREPQREERICLVTTNFQTKSMSSMVSDTSCTFPSGDGIFWKHWIQTKDGQCGSPLVSTRDGFIVGIHSASNFTNTNNYFTSVPKNFMELLTNQEAQQWVSGWRLNADSVLWGGHKVFMVKPEEPFQPVKEATQL

Variants of: B1
Test: raw area under fraction-flipped curve 0-4 h after induction (AUC4h, not background-subtracted), DNA-recorder readout of cleavage of the substrate (dimensionless); higher = more cleavage of the substrate by the protease variant
Conditions: temperature: 34 °C; time window: 0-4 h after rhamnose induction
Procedure: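 In vivo DNA recorder in E. coli TOP10(DE3) ΔrhaA at 34 °C. Each TEVp single-site mutant (parent TEVp 0) is paired with a single-site variant of the 7-mer TEVs (canonical ENLYFQ|S). The substrate sits between flexible linkers in a Bxb1-sfGFP-TEVs-SsrA fusion, so cleavage stabilises Bxb1 and speeds flipping of a recombination array, read by NGS. The value is the raw area under the fraction-flipped curve over 0-4 h after rhamnose induction (AUC4h), with ≥20 reads per time point. It is not background-subtracted; inactive controls average about 0.047.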
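Further: Bxb1 expression induced with 0.2% (w/v) L-rhamnose at OD600 near 0.5, cultures sampled hourly, flipped fraction per protease–substrate barcode pair counted by paired-end Illumina sequencing.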

Variant | area with substrate ENLYFQC | area with substrate ENLYFQD | area with substrate ENLYFQF | area with substrate ENLYFQI | area with substrate ENLYFQL | area with substrate ENLYFQS | area with substrate ENLYFQW | area with substrate ENLYFQY | area with substrate ENLYFQA | area with substrate ENLYFQE | area with substrate ENLYFQG | area with substrate ENLYFQH | area with substrate ENLYFQK | area with substrate ENLYFQM | area with substrate ENLYFQN | area with substrate ENLYFQP | area with substrate ENLYFQR | area with substrate ENLYFQT | area with substrate ENLYFQV | area with substrate ENLYFQQ
K216M | 0.103 | 0.0856 | 0.0733 | 0.0504 | 0.0697 | 0.0972 | 0.0536 | 0.0497 | – | – | – | – | – | – | – | – | – | – | – | –
N24G | 0.0665 | 0.0604 | 0.052 | 0.0761 | 0.0537 | 0.0675 | 0.0629 | 0.064 | 0.0733 | 0.0551 | 0.0639 | 0.0669 | 0.0634 | 0.068 | 0.0324 | 0.0577 | 0.0601 | 0.0592 | 0.0691 | –
N24V | 0.0615 | 0.0647 | 0.0802 | 0.0629 | 0.0529 | 0.0819 | 0.0604 | 0.0638 | 0.0711 | 0.0524 | 0.0676 | 0.0641 | 0.0725 | 0.0771 | 0.0735 | – | 0.0524 | – | 0.0281 | –
D149G | 0.0903 | 0.0553 | 0.0782 | 0.0624 | 0.0482 | 0.0971 | 0.0606 | 0.0653 | 0.0829 | – | 0.101 | 0.0782 | – | 0.0774 | 0.0605 | – | 0.0518 | 0.0631 | – | –
M88P | 0.0834 | – | – | – | – | 0.0759 | 0.0476 | – | – | – | 0.0647 | 0.0598 | 0.0439 | 0.0681 | 0.0594 | 0.0784 | 0.0555 | – | – | –
L112M | 0.103 | – | 0.0908 | 0.0511 | 0.0584 | 0.102 | 0.0632 | – | 0.113 | – | 0.103 | 0.0849 | 0.0907 | 0.0918 | – | – | – | 0.0666 | 0.0517 | –
L112V | 0.095 | – | 0.0564 | 0.0538 | – | 0.0888 | 0.0778 | – | – | – | 0.0233 | 0.0884 | 0.0653 | 0.0735 | – | – | 0.0677 | 0.061 | – | 0.0426
L73V | 0.107 | – | 0.0647 | 0.0595 | 0.06 | 0.0908 | 0.0648 | 0.0851 | 0.101 | – | – | 0.0725 | 0.0731 | – | 0.0768 | – | 0.0675 | 0.0609 | 0.0448 | 0.0569
A232Y | 0.106 | – | – | 0.04 | 0.058 | 0.105 | – | 0.113 | 0.103 | – | – | – | 0.0525 | – | 0.0799 | – | 0.0616 | 0.0708 | 0.0833 | –
A232Q | 0.128 | – | 0.103 | 0.0593 | 0.0469 | 0.107 | 0.0506 | 0.0984 | – | – | 0.0928 | – | 0.0689 | 0.0975 | – | 0.0589 | – | 0.0413 | 0.0634 | –
V200Y | 0.0781 | 0.0698 | – | 0.0643 | 0.0507 | 0.0661 | 0.0619 | – | – | – | – | 0.0593 | – | 0.0605 | – | 0.085 | 0.042 | 0.0629 | – | –
V200C | 0.0819 | 0.0625 | – | 0.0786 | 0.0571 | 0.0839 | 0.0593 | 0.0749 | – | – | 0.133 | 0.0879 | 0.057 | – | 0.0847 | 0.0799 | 0.0585 | 0.0592 | – | 0.0687
V165N | 0.113 | 0.0632 | – | 0.0561 | – | 0.0479 | 0.0431 | – | – | – | 0.062 | 0.0696 | 0.0434 | 0.0342 | – | 0.0528 | 0.0517 | – | – | –
G80E | 0.125 | – | 0.0661 | 0.0608 | 0.0617 | 0.126 | 0.0789 | – | 0.0954 | – | 0.0739 | 0.111 | 0.066 | 0.114 | – | 0.0554 | – | 0.0731 | – | 0.076
G80I | – | 0.0738 | – | 0.0544 | 0.0473 | 0.114 | 0.052 | – | 0.129 | – | 0.126 | 0.0771 | 0.0728 | 0.0844 | 0.0666 | – | – | – | 0.0555 | 0.0785
G80Q | 0.106 | 0.084 | 0.0516 | 0.0616 | 0.0458 | 0.102 | 0.0564 | 0.0761 | – | – | 0.11 | 0.0863 | 0.0601 | 0.0936 | 0.0856 | 0.0437 | 0.0586 | 0.0644 | 0.0522 | 0.0676
V64E | – | – | – | – | 0.0718 | 0.104 | 0.0605 | – | 0.0996 | – | 0.0922 | 0.0784 | – | 0.073 | 0.0773 | – | 0.0558 | – | 0.0581 | –
S201D | 0.0842 | 0.0709 | – | 0.0526 | 0.0675 | 0.0728 | – | 0.0608 | – | – | 0.0646 | 0.0642 | 0.0509 | 0.0586 | 0.0761 | 0.0601 | 0.0547 | 0.0712 | 0.0496 | –
E224D | 0.11 | 0.0827 | 0.0906 | 0.0702 | 0.0607 | 0.108 | 0.0627 | 0.0701 | 0.0632 | – | 0.133 | 0.0814 | 0.0904 | 0.109 | 0.0665 | – | 0.0602 | 0.0695 | 0.0594 | 0.0728
E224L | 0.103 | 0.0981 | – | 0.0528 | 0.0633 | 0.0924 | 0.0432 | – | – | – | 0.0735 | 0.05 | 0.0623 | 0.0835 | 0.0874 | – | – | 0.077 | – | –
L48Y | – | – | – | 0.0571 | – | 0.0634 | 0.0655 | – | 0.063 | 0.0654 | 0.0661 | 0.0519 | – | 0.0737 | 0.0519 | – | 0.0619 | 0.0645 | 0.0518 | 0.0528
P96R | 0.13 | – | 0.0643 | 0.0409 | – | 0.103 | – | – | – | – | – | – | 0.0724 | 0.0862 | – | – | – | 0.0821 | – | –
N45Y | 0.0574 | 0.0676 | 0.0567 | 0.0552 | 0.0558 | 0.0591 | 0.0619 | 0.052 | 0.0614 | 0.0477 | 0.0495 | 0.0744 | 0.0501 | 0.0638 | 0.0526 | 0.0596 | 0.0574 | 0.0538 | – | –
G214C | – | – | – | – | – | 0.0998 | – | – | 0.0817 | 0.0495 | – | – | 0.0707 | – | 0.0617 | – | – | – | – | –
P134C | 0.1 | 0.0639 | 0.0687 | 0.0582 | 0.0668 | 0.0845 | – | – | 0.0813 | – | 0.0792 | – | 0.0542 | 0.0808 | 0.0573 | 0.0666 | 0.0596 | 0.063 | 0.0579 | 0.0703
S121Q | 0.128 | – | 0.081 | 0.0633 | 0.0611 | 0.106 | 0.0606 | 0.0913 | 0.107 | 0.0865 | 0.0983 | – | 0.0489 | 0.104 | – | – | 0.0474 | 0.0699 | 0.0648 | –
